{"source": "PubChem BioAssay AID624417", "about": "(National Center for Advancing Translational Sciences (NCATS), 2012)", "note": "Screen size: about 410,000 compounds; about 6,400 (1.6%) were called active. The shares of active, inactive and inconclusive entries below differ from those in the screen. The call rests on the fitted dose curve; in most records, active means well fitted inhibition curve with a large enough effect; inconclusive means small, poorly fitted or top-dose-only effect; inactive means no such curve, though single readings can be large or run the other way. No potency is given beside an inconclusive call; the fits are too rough. Potency means the concentration at half of the fitted maximal effect; tags describe the fitted curve by direction and shape.", "data": [{"biological_target": "Glucagon-like peptide 1 receptor (Homo sapiens) (UniProt P43220)", "sequence (P43220 whole entry, looked up)": "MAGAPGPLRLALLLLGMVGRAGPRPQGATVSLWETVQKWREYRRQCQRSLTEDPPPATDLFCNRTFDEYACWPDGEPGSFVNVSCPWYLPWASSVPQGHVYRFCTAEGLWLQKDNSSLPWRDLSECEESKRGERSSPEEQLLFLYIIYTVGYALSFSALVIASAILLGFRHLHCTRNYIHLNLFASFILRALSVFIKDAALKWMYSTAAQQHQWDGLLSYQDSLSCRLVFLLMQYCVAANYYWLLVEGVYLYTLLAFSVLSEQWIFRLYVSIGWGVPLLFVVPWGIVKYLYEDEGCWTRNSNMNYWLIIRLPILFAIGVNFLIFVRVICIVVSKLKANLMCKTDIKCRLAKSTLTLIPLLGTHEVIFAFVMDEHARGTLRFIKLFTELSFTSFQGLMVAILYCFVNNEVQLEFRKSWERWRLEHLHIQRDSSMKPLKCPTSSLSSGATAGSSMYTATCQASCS", "experiment": "qHTS of GLP-1 Receptor Inverse Agonists (Inhibition Mode); further: nearly all actives have a fitted effect of over 55% in size", "settings": "HEK293 GLP-1R CRE-luciferase, luminescence, 24 h, GLP-1R form is constitutively active; series mostly up to 38.3 µM", "method_in_brief": "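GLP-1R inverse agonism mode: basal reporter luminescence in engineered HEK293 cells measured after one day of compound exposure at 37 deg C, with a 12 min room-temperature detection step.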", "values": [{"smiles": "NCC(O)(c1ccc(Cl)cc1)c1ccc(Cl)cc1", "Potency": "inconclusive [inhibitor, partial curve]"}, {"smiles": "O=C(N/N=C1\\CCCc2c1[nH]c1ccc(Cl)cc21)c1ccncc1", "Potency": "active: 7.08 µM"}, {"smiles": "COc1ccc2nc(C)cc(N/N=C/c3ccccc3)c2c1", "Potency": "inconclusive [inhibitor, single point]"}, {"smiles": "Cc1ccc(C(=O)OCC(=O)Nc2ccccc2)cc1S(=O)(=O)N1CCCCC1", "Potency": "inconclusive [inhibitor, partial curve, poor fit]"}, {"smiles": "COc1ccc(CN2CCNC(=O)C2CC(=O)NC2CCOCC2)c(F)c1", "note": "(centres undefined)", "Potency": "inactive"}, {"smiles": "COc1ccccc1OCCNC(=O)CNC(=O)c1ccc(C(C)(C)C)cc1", "Potency": "inconclusive [inhibitor, partial curve, poor fit]"}, {"smiles": "CCNC(=S)NNc1ccccc1", "Potency": "inconclusive [inhibitor, partial curve, poor fit]"}, {"smiles": "O=[N+]([O-])c1ccc(CN2CCOCCOCCN(Cc3ccc([N+](=O)[O-])cc3)CCOCC2)cc1", "Potency": "active: 10 µM"}, {"smiles": "COc1ccc(NC2CCCN(C(=O)CSc3ccccc3)C2)cc1", "note": "(centres undefined)", "Potency": "inconclusive [inhibitor, partial curve, poor fit]"}, {"smiles": "CSc1ccc(/C=N/Nc2cccc(C(=O)O)c2)cc1", "Potency": "inconclusive [inhibitor, single point]"}, {"smiles": "CCCc1nc2c(C)cc(Br)cn2c1Cc1ccccc1", "Potency": "inconclusive [inhibitor, single point]"}, {"smiles": "N#CC1=C(N)NC(SCC(=O)Nc2ccccc2)=C(C#N)C12CCCCC2", "Potency": "inconclusive [inhibitor, single point]"}, {"smiles": "Cc1cc(Nc2ccccc2)n(-c2nc3ccccc3[nH]2)n1", "Potency": "inconclusive [inhibitor, partial curve, poor fit]"}, {"smiles": "CCCCCCCCN1C(=O)[C@H](CC(=O)NCc2cccs2)C[C@@]2(C(=O)OC)CC(C)(C)CC=C12", "Potency": "active: 8.91 µM"}, {"smiles": "CN1CCN(C(=O)CCN2C(=O)/C(=C/c3ccccc3Cl)SC2=S)CC1", "Potency": "inconclusive [inhibitor, single point]"}, {"smiles": "CN(C)c1ccc(C(CNS(=O)(=O)c2ccc(F)c(F)c2)c2c[nH]c3ccccc23)cc1", "note": "(centres undefined)", "Potency": "inconclusive [inhibitor, partial curve, poor fit]"}, {"smiles": "Cc1cc(Br)cn2c(Cc3cccc(Cl)c3)c(-c3ccco3)nc12", "Potency": "inconclusive [inhibitor, single point]"}, {"smiles": "Nc1nonc1-n1nnc(C(=O)N/N=C/c2ccc(Cl)cc2Cl)c1CN1CCCCC1", "Potency": "inconclusive [inhibitor, partial curve, poor fit]"}, {"smiles": "CCOc1ccc(C(=O)NCCC2=CCCCC2)cc1OCC", "Potency": "inconclusive [inhibitor, partial curve]"}, {"smiles": "CCCc1cc(=O)[nH]c(SCC(=O)Nc2ncc(S(=O)(=O)c3ccc([N+](=O)[O-])cc3)s2)n1", "Potency": "inconclusive [inhibitor, partial curve]"}, {"smiles": "COc1ccc(-n2ncc3c(N4CCN(Cc5ccccc5)CC4)ncnc32)cc1", "Potency": "inconclusive [inhibitor, partial curve, poor fit]"}, {"smiles": "COc1ccc(NC(=O)C[C@H]2C(=O)N(C3CCCCC3)C[C@@H]2c2ccc(OC)cc2)cc1", "Potency": "inconclusive [inhibitor, single point]"}, {"smiles": "CCCCN(CC)CCCNC(=O)c1cc2cc3ccc(C)cc3nc2o1", "Potency": "inactive"}, {"smiles": "O=C(O)c1cccc(CN2C(=O)S/C(=C/c3ccccc3[N+](=O)[O-])C2=O)c1", "Potency": "inconclusive [inhibitor, full curve, poor fit]"}, {"smiles": "COc1ccccc1/C=C\\C(=O)NCC(=O)N/N=C/c1cccc(OC)c1O", "Potency": "inconclusive [inhibitor, partial curve, poor fit]"}, {"smiles": "Cc1cccc(C)c1OCc1cc(C(=O)N2CCN(c3ccccn3)CC2)no1", "Potency": "inconclusive [inhibitor, partial curve, poor fit]"}, {"smiles": "CCN(CC)CCNC(=O)c1ccc(NC(=O)Cc2ccsc2)cc1", "Potency": "inconclusive [inhibitor, single point]"}, {"smiles": "O=C(NCC1CCN(Cc2cccc(F)c2)CC1)c1cc2ccc3cccnc3c2[nH]1", "Potency": "inconclusive [inhibitor, single point]"}, {"smiles": "CCOC(=O)c1c(NC(=O)CSc2cn(CCNC(=O)c3ccccc3OC)c3ccccc23)sc2c1CCCC2", "Potency": "inactive"}, {"smiles": "O=[N+]([O-])c1cccc(-c2cc(-c3cc(Br)ccc3O)[nH]n2)c1", "Potency": "inconclusive [inhibitor, partial curve, poor fit]"}, {"smiles": "CC(C)(C)c1ccc(OCC(=O)NCc2ccco2)c(Br)c1", "Potency": "inconclusive [inhibitor, single point]"}, {"smiles": "C=C(C)COc1ccc(-c2n[nH]c(C)c2Oc2ccccc2OC)c(O)c1", "Potency": "active: 7.94 µM"}, {"smiles": "CCOC(=O)N1CCN(C(=O)COc2ccc3oc4c(c3c2)CCCC4)CC1", "Potency": "inconclusive [inhibitor, single point]"}, {"smiles": "Cc1cc(C)cc(NC(=O)CN2C(=O)CSc3ccc(S(=O)(=O)N4CCCC4)cc32)c1", "Potency": "inconclusive [inhibitor, partial curve, poor fit]"}, {"smiles": "Cc1ccc(C)c(N2CCN(C(=O)c3ccc(CS(=O)(=O)c4ccccc4C)o3)CC2)c1", "Potency": "inconclusive [inhibitor, partial curve, poor fit]"}, {"smiles": "CCC1CCc2sc(C(=O)OCC(=O)N(CCOC)c3c(N)n(Cc4ccccc4)c(=O)[nH]c3=O)cc2C1", "note": "(centres undefined)", "Potency": "inconclusive [inhibitor, single point]"}, {"smiles": "OC(COCCC12CC3CC(CC(C3)C1)C2)CN1CCCC1", "note": "(centres undefined)", "Potency": "inconclusive [inhibitor, partial curve, poor fit]"}, {"smiles": "CCn1cc(CN2CCCC(C(=O)Nc3cccc(-c4cc5ccccc5[nH]4)c3)C2)c(C)n1", "note": "(centres undefined)", "Potency": "active: 11.2 µM"}, {"smiles": "CSc1ccc(CCNC(=O)c2c(C)nn(-c3ccc(F)cc3)c2-n2cccc2)cc1", "Potency": "inconclusive [inhibitor, partial curve, poor fit]"}]}]}
